# In all, about 52,000 compounds went through this assay and about 4,300 (8.3%) were called active. Cut-off read from the data, not from the text of the source: active = survival mostly below about 52% (no sharp cut-off); inactive = mostly above about 56%. The list shows a part of the results.
# System: DeltatarO mutant
# Assay: S. aureus survival, RN4220 and DeltatarO strains – OD600, teichoic acid synthesis inhibitors, primary screen (AID 463173)
# Details: S. aureus RN4220 wild type/DeltatarO growth, OD600, 18 h, active compounds read low, screened at 18.75 µg/mL (by protocol)
row,SMILES,survival
1,COC(=O)C1CC2(C(=O)O)CC(C(=O)O)(CC(C(=O)OC)C2=O)C1=O (stereo not drawn),inactive: 73%
2,CCOC(=O)c1sc2ncn(CC(=O)Nc3cc(C)cc(C)c3)c(=O)c2c1C,inactive: 68%
3,COC(=O)c1ccccc1NC(=O)Cn1c(=O)cc(-c2ccccc2)c2c(C)nn(C)c21,inactive: 89%
4,COc1ccc(CNC(=O)c2ccc(NC(=O)N3CCCCc4ccccc43)cc2)c(OC)c1,inactive: 75%
5,Cc1cccc(-c2nc(C)c(CCNC(=O)C(=O)Nc3c(C)cc(C)cc3C)s2)c1,inactive: 94%
6,COc1ccc(-c2csc3nc(-c4ccc(F)cc4)oc(=O)c23)cc1OC,active: 48%
7,Cc1cccc(C)c1NC(=O)CCS(=O)(=O)c1ccc2c(c1)n(C)c(=O)c(=O)n2C,inactive: 84%
8,Cc1ccc(CN2CCc3nc(N4CCN(c5ccccc5F)CC4)ncc3C2)s1,inactive: 119%
9,C=CCN1C(=O)C2(NC(=O)c3ccccc3N2)c2ccccc21 (stereo not drawn),inactive: 96%
10,Cc1ccc2oc(=O)c3cc(C(=O)NCc4ccc(Cl)cc4)sc3c2c1,inactive: 93%
11,COC(=O)CNC(=O)C1CCN(c2nc(C)cc(-c3ccccc3)n2)CC1,inactive: 96%
12,Cc1ccc(NC(=O)C2CCCN2S(=O)(=O)c2cccc3nsnc23)c(Br)c1 (stereo not drawn),inactive: 89%
13,Cc1cccc(C(=O)NC(=O)Nc2ccc(-n3nc(C(F)(F)F)cc3C(F)(F)F)cc2)c1,inactive: 72%
14,COc1ccc(-c2nc(C)c(CCNC(=O)c3ccccc3Br)s2)cc1OC,inactive: 76%
15,Cc1c2cnn(CC(=O)NCc3ccc(F)cc3)c(=O)c2c(C)n1Cc1ccccc1Cl,inactive: 85%
16,COc1cccc(Cn2cnc3c2c(=O)n(C)c(=O)n3C)c1,inactive: 138%
17,CCOc1cc(Br)c(C2C(C(=O)OC)=C(C)NC3=C2C(=O)c2ccccc23)cc1OCC (stereo not drawn),inactive: 119%
18,COCCCNC(=O)C1CCN(c2ncnc3c2nc2n3CCCCC2)CC1,inactive: 80%
19,CC(=O)N1CCCc2cc(S(=O)(=O)N3CCC(N(C)C(C)C)CC3)ccc21,inactive: 94%
20,Cc1ccc(-c2c(C)n3c4c(=O)n(C)c(=O)n(C)c4nc3n2CCCO)cc1,inactive: 81%
21,CCOC(=O)c1ccccc1NC(=O)Cn1c(=O)n(Cc2ccc(C(=O)NCc3ccc4c(c3)OCO4)cc2)c(=O)c2ccccc21,inactive: 91%
22,COc1ccc(C(=O)Nc2cccc(-c3nc4cccnc4s3)c2C)c(OC)c1,inactive: 103%

row,SMILES,survival
1,CCOc1ccc(NC(=O)C2CCCN(S(=O)(=O)c3ccc(Br)s3)C2)cc1 (stereo not drawn),inactive: 101%
2,COc1cccc2sc(N(Cc3cccnc3)C(=O)c3ccc(S(=O)(=O)N(C)C)cc3)nc12,inactive: 91%
3,O=C(O)c1ccccc1NC(=O)N1c2ccccc2Sc2ccccc21,active: 40%
4,COc1ccccc1CNC(=O)c1cc2cc(S(=O)(=O)N3CCCCC3)ccc2n1C,inactive: 94%
5,CCOC(=O)C1CCCN(C(=O)C2CCN(S(=O)(=O)c3c(C)noc3/C=C/c3ccc(C)cc3)CC2)C1 (stereo not drawn),inactive: 55%
6,CC1CCCN(Cc2c(O)ccc3c(=O)c(-c4ccc(Cl)cc4)c(C(F)(F)F)oc23)C1 (stereo not drawn),active: 46%
7,COc1cc2c(cc1OC)C(c1cc(OC)c(O)c(OC)c1)CC(=O)N2 (stereo not drawn),inactive: 91%
8,Cc1nc2c(C(=O)NCCC(C)C)cnn2c(C)c1Cc1c(F)cccc1Cl,inactive: 73%
9,COc1ccc2c(c1)c1c(c(=O)n(-c3ccc(C)cc3)c(=O)n1CC(=O)Nc1cc(C)ccc1C)n2C,inactive: 115%
10,CCC(C)NC(=O)C1CCN(S(=O)(=O)c2ccc3c(ccn3CC)c2)CC1 (stereo not drawn),active: 8%
11,O=C1NC(=O)C(c2ccccc2)(c2ccccc2)N1,inactive: 76%
12,COc1ccc(OC)c(NC(=O)c2nc(SCc3ccc(F)cc3)ncc2Cl)c1,inactive: 77%
13,O=C(NCCc1csc(-c2ccc(F)cc2)n1)C(=O)Nc1ccc(Cl)cc1,inactive: 75%
14,CCC(=O)N1c2ccc(S(=O)(=O)NCCc3ccccc3)cc2CC1C (stereo not drawn),inactive: 77%
15,O=C(/C=C/c1cn(CC(O)CN2CCc3ccccc32)c2ccccc12)c1ccc(Br)cc1 (stereo not drawn),inactive: 68%
16,O=C(/C=C1\NC2(CCCC2)Cc2ccccc21)N1CCOCC1,inactive: 64%
17,Cc1cc(C)cc(N2C(=O)CS(=O)(=O)C23C(=O)N(Cc2ccccc2)c2ccccc23)c1 (stereo not drawn),inactive: 82%
18,CC(=O)NC1=NN(C(C)=O)C(C)(CS(=O)(=O)c2ccc(C)c(C)c2)S1 (stereo not drawn),inactive: 71%
19,O=S(N1CCCCC1)C12CC3CC(CC(C3)C1)C2 (stereo not drawn),inactive: 81%
20,Cc1cc(OCC(=O)Nc2ncn[nH]2)c(C)c(C)c1Br,inactive: 114%
21,COc1ccc(-c2cc(C(F)(F)F)nc(SCC(=O)Nc3ccc(C(C)=O)cc3)n2)cc1,inactive: 59%
22,COc1nnc(-c2ccc(N3CCCCC3)c(NC(=O)c3ccc(Cl)cc3)c2)c2ccccc12,inactive: 107%

row,SMILES,survival
1,N#Cc1nc(COc2ccc(Cl)cc2)oc1NCc1ccco1,inactive: 87%
2,CCc1cc(=O)[nH]c(SCc2nc(-c3ccccc3C)no2)n1,inactive: 84%
3,CCOC(=O)C1CCN(c2ncnc3c2c(-c2ccccc2)cn3-c2ccc(C)c(Cl)c2)CC1,inactive: 89%
4,Cc1cc(Nc2cccc(O)c2)c2cccc(Br)c2n1,active: 61%
5,Cc1sc2ncn(CC(=O)Nc3ccc(C(F)(F)F)cc3)c(=O)c2c1S(=O)(=O)N1CCN(C)CC1,inactive: 144%
6,Cc1nnc(SCC(=O)N(c2ccccc2)c2ccccc2)nc1C,inactive: 57%
7,Cc1cccc(NC(=O)CSc2nnc3c4ccccc4n(C)c3n2)c1,inactive: 74%
8,CCc1ccc(S(=O)(=O)c2cn(CC(=O)Nc3cccc(C)c3)c3ccc(Cl)cc3c2=O)cc1,inactive: 72%
9,CC1=NN(C(=O)c2ccccc2Cl)C(O)(C2CCCCC2)C1 (stereo not drawn),inactive: 73%
10,COC(=O)c1ccccc1NC(=O)N(Cc1ccc(C)cc1)Cc1cccn1-c1nnc(N2CCCC2=O)s1,inactive: 123%
11,CCOC(=O)c1[nH]c(C)c(CCC(=O)NCc2ccc(OC(C)C)cc2)c1C,inactive: 80%
12,COc1ccc(C)cc1NC(=O)C1CCN(S(=O)(=O)c2cccc3nonc23)CC1,inactive: 108%
13,Cc1ccc(CNS(=O)(=O)c2c(C(=O)N3CCC(C)CC3)c(C)n(C)c2C)cc1,inactive: 87%
14,CC(C)Oc1ccc(CNC(=O)C2CCCN(S(=O)(=O)c3ccc4c(ccn4C)c3)C2)cc1 (stereo not drawn),inactive: 118%
15,CCCn1cc(S(=O)(=O)c2ccc(OC)cc2)c(=O)c2cc(F)c(N3CCCCCC3)cc21,inactive: 72%
16,Cc1ccc(CSc2nnc3[nH]c(=O)cc(C)n23)cc1,inactive: 71%
17,CCn1cc(S(=O)(=O)c2ccc(C)cc2C)c(=O)c2cc(F)c(N3CCCC3)cc21,inactive: 89%
18,COc1ccc(CN2CCN(S(=O)(=O)c3ccccc3)CC2)c(OC)c1,inactive: 61%
19,CCCN1C(=O)C2(c3ccccc31)c1c(oc3cc(C)c(C)cc3c1=O)C(=O)N2CCCOC (stereo not drawn),active: 55%
20,CCC(=O)N1c2ccccc2CC1C(=O)NCCc1ccc(OC)cc1OC (stereo not drawn),inactive: 55%
21,O=S(=O)(c1ccc(-n2cnnn2)cc1)N(Cc1ccccn1)C1CC1,inactive: 97%
22,COc1cc(NC(=O)CSc2ccc(-c3sc(-c4ccccc4)nc3C)nn2)cc(OC)c1,active: 19%

row,SMILES,survival
1,CCCc1cc(=O)[nH]c2nnc(SCCC(C)C)n12,inactive: 90%
2,COC(=O)c1c(NC(=O)COc2ccc(OC)cc2)sc2c1CCC(C)C2 (stereo not drawn),inactive: 66%
3,CCCNC(=O)c1c2c(nc3ccccc13)C(=O)N(C1CCCCC1)C2,inactive: 75%
4,Cc1cccn2c(=O)c(/C=C(\C#N)c3nc4ccccc4n3C)c(Oc3ccc(Cl)cc3)nc12,inactive: 65%
5,CCCc1cc(=O)[nH]c2nnc(SCC(=O)Nc3cccc(C)c3)n12,inactive: 80%
6,O=C(NCC1CCCO1)Nc1ccccc1 (stereo not drawn),inactive: 90%
7,COc1cccc(-c2cc(C(=O)Nc3ccc(F)cc3)[nH]n2)c1,inactive: 73%
8,COc1ccc(OC)c(NC(=O)[C@H](Cc2ccccc2)N2Cc3ccccc3C2=O)c1,inactive: 108%
9,O=C(CC1C(=O)N(c2ccccc2)C(=O)N1CCc1cccs1)Nc1ccc(Cl)cc1 (stereo not drawn),inactive: 55%
10,Cc1c(C(=O)Nc2cccc(C(F)(F)F)c2)oc2ccc(S(=O)(=O)N(C)C3CCCCC3)cc12,inactive: 85%
11,CCNC(=O)c1ccc(-n2c(-c3ccccc3)cc3c2CCCCC3)cc1,active: 43%
12,COc1cccc(CNC(=O)CCc2c(C)nn(-c3ccc(N4CCOCC4)nn3)c2C)c1,inactive: 100%
13,COc1ccc(S(=O)(=O)N(C)CC(=O)N2CCCC2)cc1,inactive: 80%
14,Nc1nc2n(n1)C(c1cccs1)CC(c1ccc(Cl)cc1Cl)N2 (stereo not drawn),inactive: 93%
15,COc1ccc(CC(=O)NC2CCN(CC(=O)Nc3ccc4c(c3)CCC4)CC2)cc1OC,inactive: 96%
16,CCOC(=O)CNc1ncnc2c1nnn2C,inactive: 49%
17,CC(=O)Nc1nonc1-c1nnc(SCc2ccc(C)cc2)n1C,inactive: 48%
18,COc1ccc(OC)c(NC(=O)c2nc(SCc3ccccc3F)ncc2Cl)c1,inactive: 70%
19,COc1cccc(NC(=O)C2CCCN2S(=O)(=O)c2ccc3c(c2)n(C)c(=O)c(=O)n3C)c1 (stereo not drawn),inactive: 87%
20,CC1C(=O)N2CCCc3cc(S(=O)(=O)Nc4ccc(Br)cc4F)cc1c32 (stereo not drawn),inactive: 90%
21,COc1ccc(OC)c(NC(=O)CCN2CCC(C)CC2)c1,inactive: 79%
22,CC1CCN(S(=O)(=O)c2ccc(S(=O)(=O)NCc3ccccc3)cc2)CC1,inactive: 67%

# Reference: PubChem BioAssay AID463173 (ICCB-Longwood Screening Facility, Harvard Medical School, 2010)
